Measured values from PubChem BioAssay AID485294 (National Center for Advancing Translational Sciences (NCATS), 2010).
The campaign covered roughly 370,000 compounds. About 150 (0.041%) were called active. The inconclusive results got no clear call from the source; some entries with a clear call stand among them for comparison. Calls come from the whole dose curve; as a rule, active = well fitted inhibition curve with a large enough effect; inconclusive = small, poorly fitted or top-dose-only effect; inactive = flat fitted curve, though single readings scatter. No potency is given beside an inconclusive call; the fits are too rough.

What follows are compounds tested against Beta-lactamase (Escherichia coli (strain K12)) (UniProt P00811) (assay: qHTS Inhibitors of AmpC Beta-Lactamase (assay with detergent)). Conditions: AmpC hydrolysis of nitrocefin, absorbance 480 nm, 0.01% Triton; series mostly up to 114 µM.
Sequence of UniProt P00811 (P00811 whole entry, looked up): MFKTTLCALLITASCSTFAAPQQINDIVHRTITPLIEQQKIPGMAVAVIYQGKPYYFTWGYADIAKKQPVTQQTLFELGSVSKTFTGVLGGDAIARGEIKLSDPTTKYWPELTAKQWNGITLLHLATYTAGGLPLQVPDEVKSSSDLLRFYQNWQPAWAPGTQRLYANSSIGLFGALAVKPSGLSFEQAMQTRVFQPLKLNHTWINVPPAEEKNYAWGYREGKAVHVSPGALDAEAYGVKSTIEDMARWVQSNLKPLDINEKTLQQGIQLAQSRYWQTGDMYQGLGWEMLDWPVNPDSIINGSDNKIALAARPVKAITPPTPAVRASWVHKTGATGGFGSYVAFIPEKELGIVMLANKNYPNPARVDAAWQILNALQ
Procedure, shortened: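 AmpC (5.3 nM in the dispensed reagent) in 20 mM phosphate pH 7.0 with 0.01% (detergent screen) or 0.0001% Triton X-100 was preincubated with compounds for 15 min at room temperature. Nitrocefin was then added from an 800 uM solution, and hydrolysis was followed at 480 nm.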
Note: nearly all actives have a fitted effect of over 25% in size.
Potency is the fitted concentration of half-maximal effect; tags give direction and shape of the fitted curve.

| Structure (SMILES) | Potency |
| --- | --- |
| COc1cc(/C=C2/C(=N)N3OC(C)=CC3=NC2=O)ccc1OC(=O)c1ccco1 | inactive |
| CCn1c(SCC(=O)OC)nc2sc3c(c2c1=O)CCC3 | inconclusive [inhibitor, full curve] |
| CC(NC(=O)c1ccco1)C1COc2ccccc2O1 (stereo unspecified) | inconclusive [inhibitor, single point] |
| COC(=O)c1c(C)oc2ccc(OC(=O)c3cccs3)cc12 | inconclusive [inhibitor, full curve, poor fit] |
| Cc1ccc(C)c2[nH]c(=O)c(CN(CC3CCCO3)C(=O)NC3CCCCC3)cc12 (stereo unspecified) | inactive |
| COc1ccc(N2CCN(Cc3cc(=O)oc4cc(C)c(Cl)c(C)c34)CC2)cc1 | inconclusive [inhibitor, full curve, poor fit] |
| COc1ccc(CC(=O)N/N=C/c2sccc2C)cc1 | inconclusive [inhibitor, full curve, poor fit] |
| O=C(CCc1nc2cccnc2n1Cc1ccccc1)NCCc1ccc(Cl)cc1 | inconclusive [inhibitor, single point] |
| Cc1ccc(S(=O)(=O)Nc2n[nH]nc2C(=O)NC2CCCCC2)cc1 | inconclusive [inhibitor, full curve] |
| CN(C)/C=C/C(=O)c1ccn(S(=O)(=O)c2ccccc2)c1 | inconclusive [inhibitor, full curve, poor fit] |
| O=C(CSc1nnc(-c2cccc(Cl)c2)o1)Nc1ccc2c(c1)OCCO2 | inconclusive [inhibitor, single point] |
| O=C(c1cc(O)c(O)c([N+](=O)[O-])c1)c1ccccc1F | inconclusive [inhibitor, full curve, poor fit] |
| Cc1nc(=O)c(-c2ccccc2)c(C)n1-c1cccc(C(=O)O)c1 | inconclusive [inhibitor, full curve, poor fit] |
| O=C(O)CC(Cn1[nH]nnc1=S)c1ccccc1 (stereo unspecified) | inactive |
| COc1ccc(NC(=O)Nc2ccc(N(C)C)cc2)cc1 | inconclusive [inhibitor, full curve] |
| COc1ccccc1OCCOc1ccc(C(=O)c2ccccc2)cc1 | inconclusive [inhibitor, single point] |
| O=S(=O)(N1CCCCCC1)N1CCN(S(=O)(=O)N2CCOCC2)CC1 | inconclusive [inhibitor, full curve, poor fit] |
| COCCN1C(=O)c2oc3ccccc3c(=O)c2C1c1ccc(C(=O)OC)cc1 (stereo unspecified) | inconclusive [inhibitor, full curve, poor fit] |
| Cn1cc(Cl)c(C(=O)N(Cc2ccccc2)c2ccccn2)n1 | inconclusive [inhibitor, partial curve, poor fit] |
| COC(=O)C1C2C=CC3(CN(C4CCCC4)C(=O)C13)O2 (stereo unspecified) | inconclusive [inhibitor, single point] |
| CCOC(=O)c1ccc2[nH]c3ccccc3c2c1 | inconclusive [inhibitor, full curve] |
| CN1C(=O)C(=Cc2ccccc2Oc2ccc(Cl)c(F)c2)C(=O)N(C)C1=O | inactive |

| Structure (SMILES) | Potency |
| --- | --- |
| NC(=O)C1CCN(c2nc(-c3ccccc3-c3ccccc3)cs2)CC1 | inconclusive [inhibitor, full curve, poor fit] |
| Cc1cccc2c(CCNC(=O)c3ccc([N+](=O)[O-])cc3)c[nH]c12 | inconclusive [inhibitor, full curve, poor fit] |
| CCOC(=O)C1=C(C)NC(C)=C(C(=O)OCC)C1c1sccc1C | inactive |
| Cc1ccc(N2C(=O)[C@@H]3C(C(=O)CCN4C(=O)c5ccccc5C4=O)=NN[C@@H]3C2=O)cc1 | inconclusive [inhibitor, full curve, poor fit] |
| CCC(C(=O)Nc1ccccc1OC)n1c(C(=O)OC)cc2ccsc21 (stereo unspecified) | inconclusive [inhibitor, full curve, poor fit] |
| O=C(CN(c1ccccc1F)S(=O)(=O)c1ccccc1)Nc1ccc2c(c1)OCCO2 | inactive |
| CC1=C(C(=O)OCC(C)C)C(c2ccccc2Cl)NC(=O)N1C (stereo unspecified) | inconclusive [inhibitor, full curve] |
| COc1ccc(C(=O)C[n+]2ccc3c(c2)nc(-c2cc(OC)c(OC)cc2OC)n3C)cc1 | inconclusive [inhibitor, full curve, poor fit] |
| CCOc1ccc(CCNC(=O)CCSCc2cccc(Cl)c2)cc1OCC | inactive |
| CC(C)c1cccc(C(C)C)c1NC(=O)COC(=O)c1ccc(OCC(=O)Nc2cccc(C(F)(F)F)c2)cc1 | inactive |
| COc1ccc(CN=CC2=C(O)CNC2=O)cc1 | inactive |
| Cc1ccc(N=CC=C2OC(C)(C)C(C)(C)O2)c(C)c1 | inactive |
| Cc1nn(CCOc2ccccc2)c(=O)n1-c1ccc(Cl)cc1 | inconclusive [inhibitor, full curve] |
| Cc1sc2c(c1C)C(O)=C(C(=O)Nc1ccccc1)S(=O)(=O)N2C | inactive |
| CCc1ccc(C(=O)c2cn(Cc3ccccc3)c3cc(OC)c(OC)cc3c2=O)cc1 | inactive |
| COC(=O)c1ccc(COC(=O)c2ccc(N(C)C)cc2)cc1 | inconclusive [inhibitor, full curve, poor fit] |
| O=C(O)c1ccccc1/C=N/Nc1nc(N2CCCCC2)nc(N2CCCCC2)n1 | inconclusive [inhibitor, single point] |
| CS(=O)(=O)N1CC(C(=O)NN)Oc2ccc(Cl)cc21 (stereo unspecified) | inconclusive [inhibitor, single point] |
| O=C(CNC(=O)c1ccncc1)N/N=C/c1cc(Br)ccc1OCc1ccccc1 | inconclusive [inhibitor, single point] |
| CCOC(=O)C1=C(C)NC(C)=C(C(=O)OCC)C1C(=O)OCC(=O)N1CCc2ccccc21 | inconclusive [inhibitor, partial curve] |
| COc1ccc(Cn2nnnc2C(c2ccccc2)N2CCN(C3CCCC3)CC2)cc1 (stereo unspecified) | inconclusive [inhibitor, partial curve] |
| O=C(O)C1CCCCC1C(=O)NCCc1ccccc1 (stereo unspecified) | inconclusive [inhibitor, full curve, poor fit] |

| Structure (SMILES) | Potency |
| --- | --- |
| COc1ccc(Nc2nc(N3CCOCC3)nc(N3CCOCC3)n2)cc1Cl | inconclusive [inhibitor, single point] |
| CC(C)(C)c1ccc(-n2nc(C#N)c(Cl)cc2=O)cc1 | inactive |
| N#Cc1ccsc1NC(=O)C1CC(=O)N(Cc2ccccc2)C1 (stereo unspecified) | inactive |
| CC(C)C(=O)Nc1cccc(C(=O)NCCc2ccc(S(N)(=O)=O)cc2)c1 | inconclusive [inhibitor, single point] |
| Cc1ccc(CCNC(=O)C2CCCN(S(=O)(=O)c3cccc4nsnc34)C2)cc1 (stereo unspecified) | inactive |
| COc1cccc(C(=O)Nc2nnc(S(=O)(=O)N3CCCCC3)s2)c1 | inconclusive [inhibitor, full curve] |
| CSCCC(NC(=O)COc1ccccc1)C(=O)N(C)Cc1ccc(SC)cc1 (stereo unspecified) | inconclusive [inhibitor, full curve, poor fit] |
| Cc1c(NC(=O)CSc2nnnn2C)c(=O)n(-c2ccccc2)n1C | inconclusive [inhibitor, full curve, poor fit] |
| CCCSc1nc2c(c(=O)[nH]1)C(c1ccc(O)c(OCC)c1)CC(=O)N2 (stereo unspecified) | inconclusive [inhibitor, full curve, poor fit] |
| Cc1cc(C)nc(N2CCCC(C(=O)Nc3nnc(C)s3)C2)n1 (stereo unspecified) | inconclusive [inhibitor, full curve, poor fit] |
| Cn1c(=O)c2c(nc(NCc3ccccc3)n2Cc2ccc(Cl)c(Cl)c2)n(C)c1=O | inactive |
| C#CCOCCOCCOCCNc1nc(N2CCN(C(=O)[C@H](CCCCN)n3cc(CCC(=O)O)nn3)CC2)nc(N2CCN(C(=O)[C@H](CCCCN)n3cc(CC(C)O)nn3)CC2)n1 (stereo partly specified) | inconclusive [inhibitor, single point] |
| CCn1cnc2cc(NC(=O)c3ccc(C)cc3)ccc21 | inactive |
| CC(=O)C(C)n1c(CN(C)Cc2ccccc2)nc2c1c(=O)n(C)c(=O)n2C (stereo unspecified) | inconclusive [inhibitor, full curve, poor fit] |
| Cc1ccc(-n2cc(CN3CCC(CO)(Cc4cccc(C(F)(F)F)c4)CC3)cn2)cc1 | inactive |
| CCC1CCCCN1CCCNC(=O)CNC(=O)c1nn(-c2ccc(OC)cc2)c(=O)c2ccccc12 (stereo unspecified) | inactive |
| O=C1/C(=C\c2ccc3c(c2)OCO3)N2CCC1CC2 | inconclusive [inhibitor, partial curve] |
| Cc1cc(C)c(C#N)c(Sc2ccccc2N)n1 | inconclusive [inhibitor, full curve] |
| N#CCCn1cc(/C=N/O)c(-c2ccc(Cl)cc2)n1 | inconclusive [inhibitor, partial curve, poor fit] |
| O=C(Nc1nccs1)c1cc(S(=O)(=O)N2CCOCC2)c(Cl)cc1Cl | inconclusive [inhibitor, partial curve] |
| CCOc1cccc(C(=O)Nc2ccccc2N2CCN(C(=O)C(C)C)CC2)c1 | inconclusive [inhibitor, partial curve, poor fit] |
| CC(C)(C)C(=O)CC(=O)Nc1ccc(Cl)c(N)c1 | inconclusive [inhibitor, partial curve, poor fit] |
